From PubChem BioAssay AID1508624 (National Center for Advancing Translational Sciences (NCATS), 2021)
The campaign covered roughly 48,000 compounds. About 120 (0.25%) were called active. Another 4% or so got no clear call; they are omitted. Calls come from the whole dose curve; as a rule, active = well fitted activation curve with a large enough effect; inconclusive = small, poorly fitted or top-dose-only effect, or another doubt; inactive = no such curve, though single readings can be large or run the other way. This is one part of the list.

Assay: Primary qHTS for Identification of Small Molecule Activators of Huntingtin-Antisense Promoter Activity; note: nearly all actives have a fitted effect of over 55% in size
Settings: HEK293 HTT-AS promoter firefly luciferase reporter, 24 h; series mostly up to 57.5 µM; activity change, positive = activation: at the top concentration
In short: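 HEK293 Fluc reporter, 2,500 cells/well, 24 h pre-culture; cpds up to 57.5 uM final, 24 h 37 degrees C; Dual-Glo, 10 min RT; normalized vehicle = 0%, zero RLU = -100%.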

Activity change, positive = activation, inactive:
COc1ccc(-c2nc(C(N)=O)c3c(n2)n(-c2ccccc2OC)c(=O)n3C)c(OC)c1 -20.3%
O=C(c1ccc(F)cc1)N1CCC(c2nc3ccccc3o2)CC1 -18.1%
CSc1cccc(NC(=O)C2CCN(c3ncnc4c3nc3n4CCCCC3)CC2)c1 -22.1%
CC(C)NC(=O)CC(=O)Nc1ccc2nc3n(c(=O)c2c1)CCCCC3 -5.43%
N=C(N)N -2.35%
CCOc1ccccc1NC(=O)C(NS(=O)(=O)c1ccc2c(c1)CCC(=O)N2)c1ccccc1 (stereo unspecified) -23%
O=C(NC1CCCCCC1)c1cc2c(Cl)nc3ccccc3c2s1 -17.2%
COc1ccc(CNC(=O)c2ccc3c(c2)N(C)C(=O)C2CCCCN32)cc1OC (stereo unspecified) -4.24%
CC(C)(C)c1ccc(Oc2nc3ccccn3c(=O)c2/C=C(\C#N)c2nc3ccccc3[nH]2)cc1 3.14% [at 11.5 µM, percent change from vehicle, -100% = no light]
O=C(NC1CCOCC1)c1ccc(-c2cc(-c3cn[nH]c3-c3ccccn3)ccn2)cc1 -5.92%
O=C(CCC(=O)N1CC2CCCN2c2ccccc21)NCc1ccccc1 (stereo unspecified) 0.4%
CCOC(=O)c1ccc(NC(=O)C2=C(C)Nc3nc(SCc4ccc(Cl)cc4)nn3C2c2ccc(C)cc2)cc1 (stereo unspecified) -7.3%
CCOc1ccc(CC(=O)NCCc2csc(-c3ccc(C(F)(F)F)cc3)n2)cc1 -1.82%
Cc1nn(C(=O)COc2ccccc2)c(C)c1Sc1ccccc1 -16.1%
COc1ccc(NC(=O)CN2C(=O)COc3ccc(S(=O)(=O)Nc4ccccc4)cc32)cc1OC -9.57%
CCN(c1cccc(C)c1)S(=O)(=O)c1ccc2c(c1)NC(=O)CCS2 -20.8%
O=C(COCc1cc(-c2cccs2)on1)Nc1cccc(Cl)c1Cl 16.7%
O=C(NC1CC(=O)N(c2ccccc2)C1)c1ccc(Br)o1 (stereo unspecified) -9.08%
O=C(NCCCN1CCN(c2cccc(Cl)c2)CC1)Nc1ccccc1C(F)(F)F -17.2%
COc1cccc(CNC(=O)C2CCN(c3nn4c(=O)cc(C)nc4s3)CC2)c1 -12.3%
CCN(CC)CCOC(=O)C1(c2ccccc2)CCCC1 -5.03%
Cc1cccc(N(CC(=O)NCCSCc2ccc(Cl)cc2)S(C)(=O)=O)c1C -26%
CCOc1ccc(NC(=O)c2cc3c(n(-c4ccc(OC)cc4)c2=O)CC(C)(C)CC3=O)cc1 -11.7%
CC(=O)c1cccc(NC(=O)c2cccn2-c2nnc(N3CCCCC3)s2)c1 -4.31%
COc1ccccc1Cn1c(CNS(=O)(=O)c2ccccc2Cl)nc2cccnc21 -30.7%
CNc1nc(-c2ccc3c(N)n[nH]c3c2)cc(N2C[C@@H](C(=O)NC3CCCCC3)CC[C@@H]2C)n1 -25.5%
CCOC(=O)c1ccc2c(c1)N(CC(=O)Nc1ccc(C)cc1C)C(=O)c1ccccc1S2 3.15%
COc1ccc(NC(=O)c2nnn(Cc3nc(-c4cc(OC)c(OC)c(OC)c4)oc3C)c2C)cc1 -5%
CCN(CC)C(=O)Cn1cc(SCC(=O)Nc2ccccc2F)c2ccccc21 -14.8%
Cc1cc(C)c2c(=O)c3c(oc2c1)C(=O)N(Cc1ccc(F)cc1)C3c1cccc(O)c1 (stereo unspecified) -32.2%
Cc1ccc(CNC(=O)CN(c2ccc(C(C)C)cc2)S(=O)(=O)c2c(C)n[nH]c2C)cc1 -28.8%
CC(C)(C)CC(=O)Nc1nnc2n1CCS2 -0.0544%
COc1ccc(Cn2ccnc2SCC(=O)Nc2ccc(C)cc2C)cc1 -4.39%
O=C(COc1ccc(Cl)cc1)Nc1ccccc1C(=O)OCc1cc(=O)n2ccsc2n1 29.1%
CCCC(=O)NCC(c1ccc2c(c1)OCO2)N1CCOCC1 (stereo unspecified) -2.55%
COc1ccccc1CNC(=O)CN1C(=O)CSc2c1c(C)nn2-c1ccccc1 -0.988%
CC1CCN(C(=O)CN2CCSc3ccccc32)CC1 -9.97%
O=C(Nc1ccc(SC(F)F)cc1)c1cc(-c2cccs2)on1 23.3%
COC(=O)c1sc2cccc(F)c2c1S(=O)(=O)N1CCN(c2ccccc2OC)CC1 -32.9%
Cc1ccc(-c2cc(NC(=O)C(C)Oc3ccc(C)c(C)c3)on2)cc1 (stereo unspecified) -10.5%
CC(=O)c1cccc(NC(=O)CCCN2C(=O)COc3ccc(C)cc32)c1 -20.9%
CCOc1ccc(C(=O)Nc2nnc(S(=O)(=O)N(CC)c3ccccc3C)s2)cc1 -33.1%
O=C(NCCc1ccccc1)c1ccc2c(c1)CCN2S(=O)(=O)c1ccc(Br)cc1 -2.75%
COc1ccc(N2CC(c3nc(-c4cc(OC)c(OC)c(OC)c4)no3)CC2=O)cc1Cl (stereo unspecified) -18.7%
O=C(CCS(=O)(=O)c1cccs1)Nc1ccc(C(=O)Nc2cccc(Cl)c2)cc1 5.67%
COc1cc(OC)cc(C(=O)N2CCC(c3ccncc3)CC2)c1 -14.6%
CCNc1nc2c(c(=O)[nH]c(=O)n2C)n1CC(O)COc1ccc(Cl)cc1Cl (stereo unspecified) -38.6%
CCC(=O)N1CCCc2cc(S(=O)(=O)N3CCC(C(=O)Nc4ccc(F)c(F)c4)CC3)ccc21 -23.6%
COc1ccc(CNc2ccc3cc(S(=O)(=O)N4CCCCC4)ccc3n2)cc1 -36.8%
Cc1ccc(C)c(NC(=O)CN2C(=O)CSc3nc(C)cc(C)c32)c1 -11%
O=C(Cc1ccccc1)Nc1c(C(=O)N2CCN(c3ccc(F)cc3)CC2)oc2ccccc12 -19.7%
CCOC(=O)c1cnc2cc(C(F)(F)F)ccc2c1N1CCN(c2ccc(F)cc2)CC1 -13.3%
COc1ccccc1CNC(=O)C1CCCN(c2nn3cc(-c4ccc(F)cc4)nc3s2)C1 (stereo unspecified) -61%
Cc1ccc(Cn2ccn(CC(=O)Nc3ccccc3C(F)(F)F)c(=O)c2=O)cc1 -7.96%
CCOc1ccc(CCNC(=O)CS(=O)Cc2nc(-c3ccc(C)cc3)oc2C)cc1OCC (stereo unspecified) -20.3%
Cc1c(C(N)=O)cc([N+](=O)[O-])cc1[N+](=O)[O-] -13.8%
COC(=O)c1ccccc1NC(=O)CSc1nc(-c2ccccc2)cc(C(F)(F)F)n1 -19.5%
CC(=O)c1ccc(NC(=O)c2ccc3c(c2)N(Cc2cccc(Cl)c2)C(=O)c2ccccc2S3(=O)=O)cc1 -12.5%
CCOc1ccccc1NC(=O)Cn1c(=O)n(CCCC(=O)NCCOC)c(=O)c2cc(OC)c(OC)cc21 -5.48%
CCOC(=O)c1c(C)[nH]c(C)c1S(=O)(=O)N1CCC(C(=O)Nc2ccc(F)cc2F)CC1 -24%
Cc1cc(Cl)ccc1NC(=O)CN1C(=O)CSc2ccc(S(=O)(=O)N(C)C)cc21 -9.91%
